In PubChem BioAssay AID504332 (National Center for Advancing Translational Sciences (NCATS), 2011):
Several values for one entry are separate records, joined by “and”; a condition that tells them apart may be missing. Equal values may be shown once. About 31,000 (8.9%) of roughly 350,000 compounds were called active. This list was built around the results that the source calls inconclusive (neither active nor inactive); the mix of calls is not that of the screen. Calls come from the whole dose curve; as a rule, active = well fitted inhibition curve with a large enough effect; inconclusive = small, poorly fitted or top-dose-only effect; inactive = no such curve, though single readings can be large or run the other way. Potencies of inconclusive entries are doubtful fits and often do not repeat. A structure can be active in one record and inactive in another.
% is set by controls: 0 for no effect and ±100 for the full control effect; potency is the fitted concentration of half-maximal effect; tags give direction and shape of the fitted curve.
Note: nearly all actives have a fitted effect of over 75% in size.

Each compound was assayed against Histone-lysine N-methyltransferase EHMT2 (Homo sapiens) (UniProt Q96KQ7) (assay: qHTS Assay for Inhibitors of Histone Lysine Methyltransferase G9a). Settings: G9a H3K9 monomethylation, AlphaScreen, 2 h; activity, negative = inhibition: at 59 µM (top of the series) unless noted.
Chain of UniProt Q96KQ7 (Q96KQ7 whole entry, looked up): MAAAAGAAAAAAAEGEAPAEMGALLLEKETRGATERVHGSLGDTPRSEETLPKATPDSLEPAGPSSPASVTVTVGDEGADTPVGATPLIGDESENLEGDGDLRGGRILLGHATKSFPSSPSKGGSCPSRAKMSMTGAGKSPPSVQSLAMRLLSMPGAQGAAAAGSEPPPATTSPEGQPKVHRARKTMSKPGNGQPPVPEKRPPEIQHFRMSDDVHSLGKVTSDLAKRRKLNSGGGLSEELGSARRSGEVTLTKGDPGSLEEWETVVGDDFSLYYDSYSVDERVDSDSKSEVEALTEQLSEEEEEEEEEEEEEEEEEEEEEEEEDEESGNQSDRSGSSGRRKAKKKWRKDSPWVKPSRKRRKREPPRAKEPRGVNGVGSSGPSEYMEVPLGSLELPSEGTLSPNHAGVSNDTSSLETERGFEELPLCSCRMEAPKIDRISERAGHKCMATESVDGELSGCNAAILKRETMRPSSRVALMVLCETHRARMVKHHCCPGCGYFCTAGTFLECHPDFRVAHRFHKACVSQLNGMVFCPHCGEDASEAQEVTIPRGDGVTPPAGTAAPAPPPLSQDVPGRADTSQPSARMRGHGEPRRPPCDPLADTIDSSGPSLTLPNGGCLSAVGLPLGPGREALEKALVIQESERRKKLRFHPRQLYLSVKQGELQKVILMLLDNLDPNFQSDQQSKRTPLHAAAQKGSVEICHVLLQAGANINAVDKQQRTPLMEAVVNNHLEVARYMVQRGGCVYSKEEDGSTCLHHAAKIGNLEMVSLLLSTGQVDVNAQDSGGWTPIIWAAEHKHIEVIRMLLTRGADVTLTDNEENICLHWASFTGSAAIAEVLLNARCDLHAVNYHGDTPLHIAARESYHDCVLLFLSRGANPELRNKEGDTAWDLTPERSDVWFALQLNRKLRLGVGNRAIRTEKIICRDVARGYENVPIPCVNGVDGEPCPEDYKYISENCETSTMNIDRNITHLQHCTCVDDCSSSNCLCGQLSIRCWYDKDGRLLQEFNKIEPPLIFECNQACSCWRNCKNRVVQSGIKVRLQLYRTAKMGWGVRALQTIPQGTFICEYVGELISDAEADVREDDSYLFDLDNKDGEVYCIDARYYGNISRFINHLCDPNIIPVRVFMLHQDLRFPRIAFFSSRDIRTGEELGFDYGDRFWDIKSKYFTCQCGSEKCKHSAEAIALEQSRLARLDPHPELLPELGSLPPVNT
Method in brief: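 Enzyme 20 nM + cpd, 15 min RT; add b-H3K9 pep 500 nM / SAM 20 uM; 2 h RT; anti-H3K9me1 Ab 0.5 ug/mL + SA donor / anti-rabbit acceptor beads 20 ug/mL each, 10 min; AlphaScreen read.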
In the case of Cc1cccc(NC(=O)CSc2nc3ccccc3nc2N2CCOCC2)c1C, the Potency is reported as “inactive”. With OC(COCc1ccc(Cl)cc1)CN1CCN(CC(O)COCc2ccc(Cl)cc2)CC1 (stereo not drawn) the activity, negative = inhibition was inactive: 31.7% [at 12.7 µM]. CC(=O)c1ccc(N2CCN(C(=O)CCCCn3c(=O)[nH]c4ccsc4c3=O)CC2)cc1 was tested, and the Potency was “inactive”. In the case of CN1CCN(C(=O)c2ccc3c(=O)n(Cc4ccc(Cl)cc4)c(=S)[nH]c3c2)CC1, the Potency is reported as active: 44.7 µM. With CC12CCC(C(=O)NCCCn3ccnc3)(OC1=O)C2(C)C (stereo not drawn) the Potency was active: 15.8 µM. For O=C1C2C3C=CC(CC3)C2C(=O)N1c1ccccc1[N+](=O)[O-] (stereo not drawn), the Potency was inconclusive: 17.8 µM [inhibitor, partial curve, poor fit]. CCC(C)Sc1ccc(-c2nc3ccc(C)cn3c2NCc2ccccc2)cc1OC (stereo not drawn) was tested, and the activity, negative = inhibition was inactive: 4.06% [at 2.33 µM]. In the case of O=C1c2ccccc2C(Nc2ccc3c(c2)OCO3)N1Cc1ccc2c(c1)OCO2 (stereo not drawn), the Potency is reported as active: 39.8 µM. With CCCCN(C(=O)c1cc(-c2ccco2)nc2ccccc12)c1c(N)n(CCCC)c(=O)[nH]c1=O the activity, negative = inhibition was inconclusive: -77.7% [inhibitor] [at 2.33 µM]. For Cc1nn(-c2ccccc2)c(C)c1/C=N/N1CCN(c2ccccn2)CC1, the Potency was inconclusive: 50.1 µM [inhibitor, partial curve, poor fit]. In the case of COc1ccccc1NC(C)=[N+](C)CCNS(=O)(=O)c1ccc(Cl)cc1, the Potency is reported as inconclusive: 11.2 µM [inhibitor, full curve, poor fit]. CCC(C)C(NC(=O)C(CC(C)C)NC(=O)C(CO)NC(=O)C1CCC(=O)N1)C(=O)OC (stereo not drawn) was tested, and the Potency was “inactive”. CCCCCc1c(C)nc(SCC(=O)O)[nH]c1=O was tested, and the Potency was inconclusive: 39.8 µM [inhibitor, partial curve, poor fit]. CCN(CC)CCCNC(=S)N1CCN(c2nc(-c3ccc(F)cc3)cs2)CC1 was tested, and the Potency was inconclusive: 79.4 µM [inhibitor, single point]. For CSCCC1NC(=O)N(CC(=O)Nc2ccc(N3CCCCC3)cc2)C1=O (stereo not drawn), the Potency was inconclusive: 39.8 µM [inhibitor, single point]. With CCOc1ccc2nc(SCC(=O)NCc3ccccc3)[nH]c2c1 the activity, negative = inhibition was inactive: -7.51% [at 0.501 µM]. For COc1ccc(N2C(=O)CC(N(CCc3ccc(S(N)(=O)=O)cc3)C(=S)Nc3ccccc3)C2=O)cc1 (stereo not drawn), the Potency was inconclusive: 50.1 µM [inhibitor, partial curve]. In the case of Cc1ccccc1OCCCCc1c(C)n[nH]c1C, the activity, negative = inhibition is reported as inconclusive: -52.9% [inhibitor]. O=C(Oc1ccc2c(c1)OCC2=O)c1ccc(Cl)cc1 was tested, and the Potency was “inactive”. With CCN(CC)C(=O)CN1C(=O)/C(=C/c2ccccc2)SC1=S the Potency was “inactive”. C(=N\Nc1nc2ccccc2[nH]1)/c1ccncc1 was tested, and the Potency was “inactive”. Cc1cc(C)nc(SCc2nnc(SCC(=O)Nc3ccc(C)c(C)c3)n2Cc2ccco2)n1 was tested, and the Potency was inconclusive: 0.794 µM [inhibitor, partial curve, poor fit]. CCC(C)(C)n1nnnc1C(c1ccccc1OC)N1CCN(C(=O)c2ccco2)CC1 (stereo not drawn) was tested, and the Potency was inconclusive: 44.7 µM [inhibitor, partial curve, poor fit]. With CCN(CCNC(=O)C1CCN(S(=O)(=O)c2c(C)noc2C)CC1)c1ccccc1 the Potency was inconclusive: 39.8 µM [inhibitor, partial curve]. In the case of O=C(CN1C(=O)NC2(CCCc3ccccc32)C1=O)Nc1cc(F)ccc1F (stereo not drawn), the Potency is reported as “inactive”. Nc1cc(C(=O)OCC(=O)NCc2ccco2)ccc1Cl was tested, and the Potency was inconclusive: 39.8 µM [inhibitor, single point]. CCCn1c(NCc2cccc(OC)c2O)nc2ccccc21 was tested, and the Potency was inconclusive: 31.6 µM [inhibitor, single point]. For CC1(C)CC(=O)c2cc(C(=O)Nc3ccccc3Cl)c(=O)n(-c3ccc(Cl)cc3)c2C1, the Potency was “inactive”. In the case of N#Cc1cc(Br)ccc1N=C1CCCN1c1ccccc1, the Potency is reported as inconclusive: 0.282 µM [inhibitor, partial curve, poor fit]. With CCN(CC)c1ccc(CNc2ccc3c(c2)ncn3CC)cc1 the Potency was active: 22.4 µM. For CCCCCCC(=O)NNC(=O)c1c(O)c2ccccc2n(CC)c1=O, the Potency was inconclusive: 89.1 µM [inhibitor, partial curve, poor fit]. For O=C(Nc1ccc(S(=O)(=O)Nc2cnc3ccccc3n2)cc1)c1ccc([N+](=O)[O-])cc1Cl, the Potency was inconclusive: 79.4 µM [inhibitor, single point]. In the case of CC(C)NC(=O)c1cccc(Cn2cc(Cl)cn2)c1, the activity, negative = inhibition is reported as inconclusive: -92.4% [inhibitor]. For C[N+](C)(CCCCCC[N+](C)(C)CCCN1C(=O)c2cccc3cccc(c23)C1=O)CCCN1C(=O)c2cccc3cccc(c23)C1=O, the Potency was “inactive and active: 22.4 µM”. With S=C(NCC1CCCO1)N1CCN(c2nc(-c3ccccc3)cs2)CC1 (stereo not drawn) the Potency was active: 50.1 µM. For COc1cccc(N2CCN(S(=O)(=O)c3cccc4cccnc34)CC2)c1, the Potency was inconclusive: 79.4 µM [inhibitor, partial curve]. For CCOP(=O)(OCC)/C(C#N)=C(\O)c1ccc(OC)cc1, the activity, negative = inhibition was inconclusive: -52.5% [inhibitor]. For Cc1[nH]n(-c2ccc([N+](=O)[O-])cc2)c(=O)c1C=NCCN1CCN(C(=O)c2ccc(F)cc2)CC1, the Potency was inconclusive: 100 µM [inhibitor, single point]. In the case of CN(C)C(=O)c1ccc(NC(=O)COC(=O)c2cc(S(=O)(=O)N(C)C)ccc2N2CCCC2)cc1, the Potency is reported as inconclusive: 50.1 µM [inhibitor, partial curve]. COc1cc2c(cc1OC)CN(c1nc(CN3CCCCC3)nc3sc4c(c13)CCCC4)CC2 was tested, and the Potency was inconclusive: 25.1 µM [inhibitor, single point]. With CC(C)CCNC(=O)CCc1nnc2n(CCCOC(C)C)c(=O)c3ccccc3n12 the Potency was inconclusive: 25.1 µM [inhibitor, single point]. In the case of COc1cc2[nH]c(Cl)c([N+](=O)[O-])c2cc1OC, the Potency is reported as inconclusive: 0.631 µM [inhibitor, partial curve, poor fit]. CCN1CCN(CCCNC(=O)c2ccc(/C=C3/Sc4ccccc4N(Cc4ccccc4F)C3=O)cc2)CC1 was tested, and the Potency was inconclusive: 39.8 µM [inhibitor, partial curve, poor fit]. In the case of O=C(CN1C(=O)c2cccc3cccc(c23)C1=O)NCCN1CCOCC1, the Potency is reported as “inactive”. In the case of Cc1occc(=O)c1O, the Potency is reported as inconclusive: 1.78 µM [inhibitor, full curve, poor fit]. With Cc1ccc(N(Cc2cccs2)C(=O)c2ccccc2Cl)cc1 the Potency was “inactive”. With Cc1cccc(N2CCN(S(=O)(=O)c3csc(C(N)=O)c3)CC2)c1C the Potency was inconclusive: 35.5 µM [inhibitor, partial curve, poor fit]. In the case of COc1ccc(C(C(=O)NC2CCCC2)N(CCO)C(=O)Cn2nnc(-c3ccc(C)o3)n2)cc1OC (stereo not drawn), the Potency is reported as active: 28.2 µM. With CCOC(=O)CNC(=O)c1sc2ncnc(N3CCc4ccccc4C3)c2c1C the Potency was inconclusive: 31.6 µM [inhibitor, partial curve, poor fit]. With c1ccc(C2=Nn3c(nnc3-c3ccccn3)SC2)cc1 the Potency was inconclusive: 11.2 µM [inhibitor, partial curve, poor fit]. For O=[N+]([O-])c1ccc(/C=N\N2CCN(c3ccc(Cl)cc3)CC2)cc1, the Potency was “inactive”. For CN(C)C(/C=C/Nc1ccc([N+](=O)[O-])cc1)=C(C#N)C#N, the Potency was “inactive”. For Clc1cccc(N/N=C(\Cc2nc3ccccc3[nH]2)c2ccccc2)c1, the Potency was active: 25.1 µM. For COc1ccc(C)cc1NC(=O)Cn1c(=O)n(Cc2nc(C)no2)c(=O)c2ccccc21, the Potency was inconclusive: 3.55 µM [inhibitor, partial curve]. Cn1ccnc1SCC(=O)Nc1cc(C(F)(F)F)ccc1N1CCOCC1 was tested, and the Potency was “inactive”. O=C(Nc1nnc2n1CCS2)c1ccc(F)cc1F was tested, and the Potency was active: 2.24 µM. In the case of O=C(c1ccccc1Cl)N1CCCCC1CCN1CCCCC1 (stereo not drawn), the Potency is reported as “inactive”. With COc1ccc(C2C(C(=O)OCC3CCCO3)=C(C)NC3=C2C(=O)CC(c2ccco2)C3)cc1O (stereo not drawn) the Potency was “inactive”. For CC(C)c1ccc(N2C(=NC(=O)C3CC3)SC3CS(=O)(=O)CC32)cc1 (stereo not drawn), the Potency was “inactive”. With CC1=C(C)CS(=O)N(S(=O)(=O)c2ccccc2)C1 (stereo not drawn) the Potency was active: 8.91 µM. For c1ccc2c(c1)ncn2CCN1CCCCC1, the Potency was inconclusive: 25.1 µM [inhibitor, single point]. In the case of [O]=[Bi][O]C(=O)[O][Bi]=[O], the Potency is reported as inconclusive: 35.5 µM [inhibitor, single point]. For CCCCn1nc(C(=O)Nc2nc3c(s2)CCCC3)c2ccccc2c1=O, the Potency was inconclusive: 31.6 µM [inhibitor, single point]. In the case of COc1cccc(N2CCN(C3CC(=O)N(c4ccc(F)c(Cl)c4)C3=O)CC2)c1 (stereo not drawn), the Potency is reported as inconclusive: 20 µM [inhibitor, single point]. With CS(=O)(=O)Nc1ccc(C2=NN(S(C)(=O)=O)C(c3ccc4nccnc4c3)C2)cc1 (stereo not drawn) the Potency was inconclusive: 28.2 µM [inhibitor, partial curve, poor fit]. CCOC(=O)c1[nH]c(COC(=O)CCOc2ccccc2OC)c(C(=O)OCC)c1C was tested, and the activity, negative = inhibition was inconclusive: -55.6% [inhibitor] [at 0.501 µM]. In the case of CCN1C(=O)[C@H]2[C@@H](c3ccc(OC)cc3)N3C(=O)CN(CC4CC4)C(=O)[C@@]3(C)[C@H]2C1=O, the Potency is reported as inconclusive: 79.4 µM [inhibitor, single point]. Cc1nn2c(=O)cc(COC(=O)c3ccccc3NC(=O)C(C)Oc3ccccc3)nc2s1 (stereo not drawn) was tested, and the Potency was inconclusive: 25.1 µM [inhibitor, single point].
